Our source for the relative growth values is the supplement of paper PMC9446081.

In all, about 39,000 compounds went through this assay and about 220 (0.56%) showed activity. This is one part of the list.
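Also: static incubation at 37 °C against the wild-type strain, values averaged over two biological replicates.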

In this assay the test system is Escherichia coli K-12 BW25113. In words: relative growth (OD600 normalised to plate interquartile mean) (fraction); higher = less growth inhibition, active = 0.2 or less. Particulars: 50 µM; LB; incubation time: overnight (16-24 h).
As for `Oc1cc(O)c2cc(O)c(-c3ccc(O)c(O)c3)[o+]c2c1.[Cl-]`, the relative growth was inactive: 1.14. For the compound `CS(C)(=O)=O`, the relative growth was inactive: 1.05. In the case of `C[C@@H]1CN([C@@H](C)CO)C(=O)Cc2cc(NS(=O)(=O)c3ccccc3)ccc2O[C@@H]1CN(C)S(=O)(=O)c1ccccc1`, the relative growth is inactive: 0.995. As to `Cc1noc(C)c1NC(=O)N(C)C[C@@H]1OCCCC[C@H](C)Oc2ccc(NC(=O)Cc3ccccc3)cc2C(=O)N([C@H](C)CO)C[C@@H]1C`, the relative growth was inactive: 1.01. With `C[C@H]1CN([C@@H](C)CO)C(=O)Cc2cc(NC(=O)CCN3CCOCC3)ccc2O[C@@H]1CN(C)Cc1ccc2c(c1)OCO2` the figure was inactive: 0.999; with `C[C@@H]1CN([C@H](C)CO)S(=O)(=O)c2ccc(C#CC(C)(C)O)cc2O[C@@H]1CN(C)Cc1ccc(F)cc1`, inactive: 0.944; with `Cc1ccc(S(=O)(=O)Nc2ccc3c(c2)CC(=O)N([C@@H](C)CO)C[C@H](C)[C@@H](CN(C)Cc2ccc(C(F)(F)F)cc2)O3)cc1`, inactive: 0.939. In the case of `C[C@@H]1CCCCO[C@@H](CN(C)Cc2ccc(C(=O)O)cc2)[C@@H](C)CN([C@@H](C)CO)C(=O)c2cc(NS(=O)(=O)c3ccc(Cl)cc3)ccc2O1` it was inactive: 1.03; in that of `CCCCNc1ccc(C(=O)OCCN(C)C)cc1.Cl`, inactive: 0.883.

Turning to `C[C@H](CO)N1C[C@H](C)[C@@H](CN(C)Cc2ccc3c(c2)OCO3)Oc2ccc(NC(=O)CCN3CCOCC3)cc2CC1=O`, the relative growth is inactive: 0.996. In the case of `COc1cccc(NC(=O)N(C)C[C@H]2Oc3ncc(C#Cc4cccnc4)cc3C(=O)N([C@@H](C)CO)C[C@@H]2C)c1` it was inactive: 0.989; in that of `CO[C@@H]1CN(C)C(=O)c2cc(NC(=O)c3cnccn3)ccc2OC[C@@H](C)N(CCC(F)(F)F)C[C@H]1C`, inactive: 0.993; in that of `CC(C)NC(=O)Nc1ccc2c(c1)C(=O)N([C@H](C)CO)C[C@@H](C)[C@@H](CN(C)Cc1ccc(-c3ccccc3)cc1)O2`, inactive: 0.946. With `CC(C)NC(=O)Nc1ccc2c(c1)C(=O)N([C@H](C)CO)C[C@@H](C)[C@H](CN(C)CC1CCCCC1)OCCCC[C@H](C)O2`, the relative growth was inactive: 0.972.

As for `CN1CCN(C(=O)C[C@H]2C=C[C@@H](NS(=O)(=O)c3cccc(F)c3)[C@H](CO)O2)CC1`, the relative growth is inactive: 0.999.

Turning to `CN(C)C(=O)CSc1nnc(N)s1`, the relative growth was inactive: 0.921. With `CN1CC[C@@]2(C(=O)N3CCOCC3)CCN(S(C)(=O)=O)CC[C@H]12` the figure was inactive: 1.01.

Consider `C[C@@H]1CCCCO[C@H](CN(C)C(=O)NC2CCCCC2)[C@@H](C)CN([C@@H](C)CO)C(=O)c2cc(NC(=O)Cc3ccccc3)ccc2O1`, for which the relative growth was inactive: 1.02.

Turning to `O=C(NCCCN1CCOCC1)[C@H]1N[C@H]2c3ccc(C4=CCCCC4)c(=O)n3C[C@H]2[C@@H]1CO`, the relative growth is inactive: 0.98.

In the case of `CN(C)C(=O)CN1CCC2(CC1)CN(CCn1cccn1)C(=O)CO2`, the relative growth is inactive: 0.959. With `COc1ccc(NC(=O)Nc2ccc3c(c2)CC(=O)N([C@H](C)CO)C[C@@H](C)[C@@H](CN(C)C(=O)Nc2cccc4ccccc24)O3)cc1`, the relative growth was inactive: 1.02.

Regarding `C[C@@H]1CCCCO[C@H](CN(C)S(=O)(=O)c2ccc(F)cc2)[C@@H](C)CN([C@H](C)CO)C(=O)c2cc(NC(=O)Nc3ccc4c(c3)OCO4)ccc2O1`, the relative growth was inactive: 0.977.

Turning to `COC(=O)CCCCCCC(=O)NN`, the relative growth is inactive: 0.995. Consider `C[C@H](CO)N1C[C@H](C)[C@H](CN(C)Cc2ccc(Oc3ccccc3)cc2)Oc2ccc(NC(=O)C3CC3)cc2CC1=O`, for which the relative growth was inactive: 0.983. With `CC(C)NC(=O)N(C)C[C@@H]1Oc2ccc(NC(=O)NC3CCCCC3)cc2CC(=O)N([C@H](C)CO)C[C@@H]1C` the figure was inactive: 1; with `O=c1cc[nH]c(C(F)(F)F)n1`, inactive: 1; with `C[C@@H]1CCCCO[C@H](CN(C)C(=O)Nc2ccc(C(F)(F)F)cc2)[C@H](C)CN([C@@H](C)CO)C(=O)c2cc(NC(=O)Nc3ccc(C(F)(F)F)cc3)ccc2O1`, inactive: 0.993. As for `Cc1ccc(S(=O)(=O)N(C)C[C@H]2Oc3c(NS(C)(=O)=O)cccc3C(=O)N([C@H](C)CO)C[C@H]2C)cc1`, the relative growth was inactive: 0.995.

As for `C[C@@H]1CN([C@@H](C)CO)C(=O)c2cc(NC(=O)Nc3cccc4ccccc34)ccc2O[C@@H](C)CCCCO[C@H]1CN(C)C(=O)Nc1ccccc1`, the relative growth is inactive: 1.

In the case of `Cc1noc(C)c1S(=O)(=O)Nc1ccc2c(c1)C(=O)N([C@@H](C)CO)C[C@H](C)[C@@H](CN(C)S(=O)(=O)c1ccc(Cl)cc1)O2`, the relative growth was inactive: 0.982. On to `Cc1ccc(S(=O)(=O)N(C)C[C@@H]2Oc3ccc(NC(=O)Nc4ccc(C(F)(F)F)cc4)cc3C(=O)N([C@H](C)CO)C[C@@H]2C)cc1`, for which the relative growth was inactive: 1.03. For `C[C@H](CO)N1C[C@H](C)[C@H](CN(C)Cc2ccc(C(=O)O)cc2)OCCCC[C@H](C)Oc2ccc(NC(=O)Nc3ccccc3)cc2C1=O`, the relative growth is inactive: 1.03. As for `C[C@H]1CCCCO[C@H](CN(C)C(=O)NC2CCCCC2)[C@@H](C)CN([C@@H](C)CO)C(=O)c2cc(NS(=O)(=O)c3cccs3)ccc2O1`, the relative growth was inactive: 0.996. Regarding `C[C@@H]1CN([C@@H](C)CO)C(=O)c2cccc(NS(C)(=O)=O)c2O[C@@H]1CN(C)Cc1ccc(C(=O)O)cc1`, the relative growth was inactive: 0.997. On to `Cc1cc(C(=O)Nc2cccc3c2O[C@@H](CN(C)C(=O)Nc2ccc4c(c2)OCO4)[C@H](C)CN([C@H](C)CO)C3=O)n(C)n1`, for which the relative growth is inactive: 0.991.

Turning to `C[C@@H]1CN([C@H](C)CO)C(=O)c2cc(NC(=O)Cc3ccccc3)ccc2O[C@@H](C)CCCCO[C@H]1CN(C)C(=O)Nc1cccc2ccccc12`, the relative growth is inactive: 1.01. Take `C[C@@H]1CN([C@@H](C)CO)C(=O)c2cc(NS(=O)(=O)c3cn(C)cn3)ccc2O[C@@H]1CN(C)Cc1ccc(C(=O)O)cc1`: the relative growth is inactive: 0.977. As to `C[C@H](CO)N1C[C@H](C)[C@H](CN(C)C(=O)Nc2ccc3c(c2)OCO3)Oc2ccc(NC(=O)CCCN(C)C)cc2C1=O`, the relative growth was inactive: 1.03.

Regarding `COc1ccc(S(=O)(=O)N(C)C[C@H]2Oc3ccc(NC(=O)C4CC4)cc3C(=O)N([C@H](C)CO)C[C@H]2C)cc1`, the relative growth was inactive: 0.999.
